Data: patent US20190225686A1 (Daiichi Sankyo, published 2019)

T1: human GPR20 (human, UniProt Q99678 1-358)
T1 construct: 358 amino acids, NCBI NP_005284; also called hGPR20; human GPR20 protein (NP_005284)
T1 sequence: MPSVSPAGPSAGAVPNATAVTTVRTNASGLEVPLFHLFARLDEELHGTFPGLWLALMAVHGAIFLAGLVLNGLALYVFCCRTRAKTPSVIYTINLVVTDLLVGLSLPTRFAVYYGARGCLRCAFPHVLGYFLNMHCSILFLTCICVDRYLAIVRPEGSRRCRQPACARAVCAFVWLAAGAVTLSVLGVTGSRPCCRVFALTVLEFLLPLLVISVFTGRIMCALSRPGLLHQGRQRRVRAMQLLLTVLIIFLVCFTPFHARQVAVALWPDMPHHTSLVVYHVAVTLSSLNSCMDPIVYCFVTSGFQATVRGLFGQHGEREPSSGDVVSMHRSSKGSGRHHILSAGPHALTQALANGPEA


Target: T1, human GPR20
Test: flow cytometry on 293T cells transfected with pcDNA3.1-hGPR20
Method: The cells were cultured overnight under conditions of 37° C. and 5% CO₂, and thereafter, a cell suspension was prepared. To the obtained cell suspension, each humanized anti-GPR20 antibody was added, and the obtained mixture was left standing at 4° C. for 1 hour. […] The cells were left standing at 4° C. for 1 hour. The cells were washed twice with PBS supplemented with 5% FBS, and then re-suspended in PBS supplemented with 5% FBS, followed by detection using a flow cytometer (BD FACSCant II; BD Biosciences). The data was analyzed using Flowjo (Tree Star, Inc.). […] In the histograms of FIG. 24, the abscissa depicts the fluorescence intensity of PE indicating the amount of the antibody bound, and the ordinate depicts a cell count.

| binding result | Binder |
| --- | --- |
| binds | humanized h046-H8/L1 (antibody, human IgG1, kappa, the claims and summary say 20 to 474) heavy: QVQLQQSGAELAKPGSSVKISCKASGYTFTSYYISWIKQTTGQGLKYIGFINPGSGHTNYNEKFKGKATLTVDKSSSTANMQLSSLTPDDSAIYYCARGAGGFLRIITKFDYWGQGVMVTVSSASTKGPSVFPLAPSSKSTSGGTAALGCLVKDYFPEPVTVSWNSGALTSGVHTFPAVLQSSGLYSLSSVVTVPSSSLGTQTYICNVNHKPSNTKVDKRV[letters of human IgG1 Fc omitted] light: DIQMTQSPSSLSASVGDRVTITCRASKSVSTYIHWYQQKPGKAPKLLIYSASNLESGVPSRFSGSGSGTDFTLTISSLQPEDFATYYCQQINELPYTFGQGTKVEIKRTVAAPSVFIFPPSDEQLKSGTASVVCLLNNFYPREAKVQWKVDNALQSGNSQESVTEQDSKDSTYSLSSTLTLSKADYEKHKVYACEVTHQGLSSPVTKSFNRGEC |
| binds | humanized h046-H10/L1 (antibody, human IgG1, kappa, the claims and summary say 20 to 474) heavy: QVQLQQSGAELAKPGSSVKVSCKASGYTFTSYYISWIKQTTGQGLKYIGFINPGSGHTNYNEKFKGKATLTVDKSSSTANMQLSSLTPDDSAIYYCARGAGGFLRIITKFDYWGQGVMVTVSSASTKGPSVFPLAPSSKSTSGGTAALGCLVKDYFPEPVTVSWNSGALTSGVHTFPAVLQSSGLYSLSSVVTVPSSSLGTQTYICNVNHKPSNTKVDKRV[letters of human IgG1 Fc omitted] light: DIQMTQSPSSLSASVGDRVTITCRASKSVSTYIHWYQQKPGKAPKLLIYSASNLESGVPSRFSGSGSGTDFTLTISSLQPEDFATYYCQQINELPYTFGQGTKVEIKRTVAAPSVFIFPPSDEQLKSGTASVVCLLNNFYPREAKVQWKVDNALQSGNSQESVTEQDSKDSTYSLSSTLTLSKADYEKHKVYACEVTHQGLSSPVTKSFNRGEC |
